Data published in patent US6426068B1, “Therapeutic uses of heterologous superoxide dismutase (HSD), and method for selecting said HSD” (Fractales Biotech, priority 1998, dated 2002).

Test system: U937 cells which are chronically infected with HIV-1 (U1 cells)
Format: cell-based, human

SMILES | % of apoptosis
Cc1cn([C@H]2C[C@H](N=[N+]=[N-])[C@@H](CO)O2)c(=O)[nH]c1=O [AZT, Zinovudine] | 45 ± 2%
CC(C)c1nc(CN(C)C(=O)N[C@H](C(=O)N[C@@H](Cc2ccccc2)C[C@H](O)[C@H](Cc2ccccc2)NC(=O)OCc2cncs2)C(C)C)cs1 [Ritonavir] | 15 ± 2%
CC(C)(C)NC(=O)[C@@H]1C[C@@H]2CCCC[C@@H]2CN1C[C@@H](O)[C@H](Cc1ccccc1)NC(=O)[C@H](CC(N)=O)NC(=O)c1ccc2ccccc2n1 [Saquinavir] | 15 ± 2%
